The campaign covered roughly 48,000 compounds. About 1,200 (2.5%) were called active. Inconclusive results (about 2%) are left out.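 Rule for the calls: active = activation of at least 60% and not above a set upper limit (about 1 call in 100 departs from these limits); inconclusive = activation of 40% to 60%, or above that upper limit; inactive = activation under 40%.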 The list shows a part of the results.

This assay concerns the target Probable G-protein coupled receptor 32 (Homo sapiens) (UniProt O75388). Kind of assay: qHTS for Agonists of Human Resolvin D1 Receptor DRV1. Note: 0% is about no effect. As to conditions: CHO-K1 GPR32 beta-arrestin PathHunter luminescence, 90 min; at 76.9 µM; active compounds read high; zero percent set by DMSO-only wells. The method, boiled down: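 Using DMSO wells as EC0, agonist-induced signal was taken as chemiluminescence from beta-Gal reconstituted upon beta-arrestin recruitment to GPR32 in CHO-K1 cells after 90 min compound treatment.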
UniProt O75388, sequence (O75388 whole entry, looked up): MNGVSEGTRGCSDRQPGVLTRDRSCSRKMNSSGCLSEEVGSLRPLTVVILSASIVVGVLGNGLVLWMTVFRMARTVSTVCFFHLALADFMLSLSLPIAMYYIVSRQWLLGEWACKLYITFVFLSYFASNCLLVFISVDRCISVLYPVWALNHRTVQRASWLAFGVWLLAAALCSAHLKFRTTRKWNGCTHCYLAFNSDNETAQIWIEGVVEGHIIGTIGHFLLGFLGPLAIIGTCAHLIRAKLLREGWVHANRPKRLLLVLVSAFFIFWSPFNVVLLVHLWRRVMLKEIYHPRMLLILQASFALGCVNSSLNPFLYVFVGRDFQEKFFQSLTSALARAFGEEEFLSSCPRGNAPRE
Background: qHTS replaces the single test concentration by a dilution series.
As to `COc1cccc(OC(=O)CSc2nnc(-c3cccs3)o2)c1`, the activation was inactive: -5.46%.

For the compound `Cc1[nH]cnc1CN1CCc2c(c3ccccc3n2C)C1=O`, the activation is inactive: 3.13%.

`COc1ccc(N2C(=O)CSC23C(=O)N(CC(=O)Nc2ccccc2F)c2ccccc23)cc1` (stereo not drawn): the activation was inactive: -4.97%.

Consider `COC(=O)c1ccc(Nc2nc(-c3ccccc3Cl)nc3ccccc23)cc1`, for which the activation was inactive: -7.03%.

As to `Clc1cccc(-c2nc3ccccn3c2Nc2ccc3c(c2)OCCO3)c1`, the activation is inactive: -7.36%.

As for `CC1(C)OC[C@@H](COC(=O)CCc2ccc(OC[C@@H](O)CNCCNC(=O)N3CCOCC3)cc2)O1`, the activation was inactive: -1.7%.

Consider `Cc1cc(OC(C)C(=O)N2CCC(c3nc4ccccc4o3)CC2)ccc1Cl` (stereo not drawn), for which the activation was inactive: 32.6%.

In the case of `Cc1ccc(CSCCNC(=O)C2CCN(S(=O)(=O)Cc3ccccc3)CC2)cc1`, the activation is inactive: 13.9%.

In the case of `COc1ccccc1NC(=O)CSc1ccc(-c2ccccn2)nn1`, the activation is inactive: 11.8%.

Regarding `Cc1ccc(N(C)C(CNS(=O)(=O)c2ccccc2)c2ccccc2)cc1` (stereo not drawn), the activation is inactive: -7.97%.

As to `COc1cccc(CNC(=O)Cn2nc(-c3ccc(C)cc3)ccc2=O)c1`, the activation is inactive: -10.9%.

For `CCCNC(=O)C1CCN(C(=O)N2CC(C)Oc3ccccc32)CC1` (stereo not drawn), the activation is inactive: -14.2%.

For the compound `CCn1ccc2cc(S(=O)(=O)N3CCCN(C(=O)Nc4cccc(SC)c4)CC3)ccc21`, the activation was inactive: -7.46%.

With `Cc1ccc(NC(=O)Cn2cc(C(=O)c3ccco3)c3ccccc32)cc1C`, the activation is inactive: 0.498%.

For the compound `COc1ccc(-n2ccnc2SCC(=O)Nc2cccc(OC)c2)cc1`, the activation is inactive: -12.4%.

Turning to `O=C1NC(=O)c2cc(Nc3ccccc3)c(Nc3ccccc3)cc21`, the activation was inactive: -11.4%.

Regarding `Cc1ccc(CNC(=O)C2CCC(CNS(=O)(=O)c3ccc(C)cc3)CC2)cc1` (stereo not drawn), the activation was inactive: -3.83%.

Turning to `CCCCN(C)S(=O)(=O)c1ccc(NC2=NS(=O)(=O)c3ccccc32)cc1`, the activation is inactive: 3.23%.

In the case of `Cc1ccc(NC(=O)CSc2nc3ccccc3c(=O)n2CCC(=O)NC2CCCCC2)cc1C`, the activation was inactive: 7.3%.

In the case of `CCOc1ccccc1NC(=O)c1cc2cc3cc(C)ccc3nc2s1`, the activation was inactive: -8.97%.

`COc1ccc(-n2c(SCC(=O)NCc3ccco3)nc3c([nH]c4ccccc43)c2=O)cc1`: the activation was inactive: 40.4%.

As for `CCOC(=O)c1cc2c(=O)n3ccccc3nc2n(Cc2ccco2)c1=NC(=O)c1cccc(C)c1`, the activation is inactive: -34.3%.

As to `CCCNC(=O)CSc1c2c(nc3ccc(Cl)cc13)CCCC2`, the activation is inactive: -12.9%.

Turning to `CCCn1c2ccccc2c2cnn(CC(=O)N(CC)c3cc(C)ccc3C)c(=O)c21`, the activation is inactive: -17.2%.

For the compound `Cc1cccc(N2CCN(C(=O)c3cnn(-c4ccc(F)cc4F)c3C3CCN(C(=O)OC(C)(C)C)CC3)CC2)c1C`, the activation is inactive: -17.1%.

For `CCOc1ccc(NC(=O)CC2C(=O)N(c3ccccc3)C(=O)N2C2CCCC2)cc1` (stereo not drawn), the activation is inactive: -0.675%.

For `CCc1ccccc1NC(=O)c1ccc(Cn2nc(N3CCN(c4ccccc4)CC3)ccc2=O)o1`, the activation was active: 63.3%.

With `Cc1cc(=O)n(Cc2ccccc2)c2c1c(C)nn2-c1ccccc1`, the activation is inactive: -4.3%.

With `Cc1ccc2oc(=O)c3cnn(CC(=O)N4CCN(c5ccccc5F)CC4)c3c2c1`, the activation was inactive: 8.86%.

Turning to `Cc1ccc(C2C=C(c3ccccc3)Nc3nc(NS(=O)(=O)c4ccc(C)cc4)nn32)cc1` (stereo not drawn), the activation was active: 93.9%.

As to `Cc1cccc(N2CCN(C(=O)C3CCN(S(=O)(=O)c4c(C)noc4/C=C/c4ccccc4F)CC3)CC2C)c1` (stereo not drawn), the activation was inactive: -14.3%.

In the case of `Cc1ccc(NC(=O)Nc2cn(C)c(=O)c3ccccc23)c(Cl)c1`, the activation is inactive: -54.1%.

Take `Cc1nc2c3ccccc3nc(NNC(=O)CCC(=O)N3CCN(c4cc(Cl)ccc4C)CC3)n2n1`: the activation is inactive: -29.9%.

On to `COCc1cc(C)nc2sc(C(=O)Nc3ccc(C(C)=O)cc3)c(N)c12`, for which the activation is inactive: 33%.

With `COc1ccc(OCC(=O)Nc2cccc(C(=O)OCc3cc(=O)n4nc(C)sc4n3)c2)cc1`, the activation is inactive: -14.1%.

With `COc1cccc(NC(=O)c2sc3nc(C)c(C(=O)Nc4ccc(C)cc4C)c(-c4ccco4)c3c2N)c1`, the activation was inactive: -1.78%.

On to `CCc1cccc(NC(=O)CSc2nc3ccccc3nc2N2CCCCC2)c1`, for which the activation was inactive: -10.1%.

`CNC(=O)CCCN1C(=O)CCn2nc(-c3cn(C)c4ccccc34)cc21`: the activation was inactive: -1.21%.

As for `CCOC(=O)c1c(NC(=O)/C=C/c2ccc(OCC)cc2)sc(C(C)=O)c1C`, the activation was inactive: -3.42%.

In the case of `Cc1nn(-c2ccccc2)c2sc(C(=O)Nc3cccc(Cl)c3)cc12`, the activation was inactive: -2.65%.

For the compound `COc1cc2nc(NCCc3ccccc3)n3nc(-c4cccnc4)nc3c2cc1OC`, the activation was inactive: -4.78%.

For the compound `COC(=O)c1ccc2c(=O)n(CCCCCC(=O)N3CCN(c4cc(C)ccc4C)CC3)c(=O)[nH]c2c1`, the activation was inactive: -10.9%.

For `CCC(=O)N1CCc2cc(CNS(=O)(=O)c3ccc(C(C)C)cc3)ccc21`, the activation was active: 109%.

Regarding `Cc1ccc(C)c(N2CCN(C(=O)CCS(=O)(=O)c3cc(Br)cc4c3N(C(=O)C3CC3)CC4)CC2)c1`, the activation was inactive: -18.4%.

Consider `COc1ccc(CNC(=O)C(Cc2ccccc2)NS(=O)(=O)c2ccc3c(c2)CCN3C(C)=O)cc1` (stereo not drawn), for which the activation is inactive: 11.8%.

Regarding `COc1cc(NC(=O)CCc2c(C)nc3c(-c4ccc(F)cc4)c(C)nn3c2C)cc(OC)c1OC`, the activation is inactive: -11.6%.

For the compound `CCOc1ccc(NC(=O)CC2C(=O)N(c3ccc(OC)cc3)C(=O)N2C2CCCCC2)cc1` (stereo not drawn), the activation is inactive: -7.45%.

Regarding `CCCSc1ncc(Cl)c(C(=O)N2CCN(c3cccc(Cl)c3)CC2)n1`, the activation was inactive: -24.2%.

As to `COC(=O)c1nnn(CC(=O)Nc2c(C)cccc2C)c1N`, the activation was inactive: 1.69%.

For the compound `Cc1cc2nc3c(=O)[nH]c(=O)nc-3n(C[C@H](O)[C@H](O)[C@H](O)CO)c2cc1C`, the activation is inactive: -5.93%.

As for `COc1cc(CN(C(=O)Nc2cccc(Cl)c2)c2ccccn2)cc(OC)c1OC`, the activation is inactive: -13.2%.

Consider `CC(C)CCNC(=O)c1ccc2nc(CCc3ccccc3)oc2c1`, for which the activation was inactive: -5.83%.

On to `CC(C)c1ccc(S(=O)(=O)N2CCN(CC(=O)Nc3ccccc3C(F)(F)F)CC2)cc1`, for which the activation was inactive: -3.05%.

With `CC(=O)c1cccc(NC(=O)CCn2nc(C)c(S(=O)(=O)N(C)C)c2C)c1`, the activation is inactive: -10.2%.

`Cc1ccc(C(=O)NCC(c2cccs2)S(=O)(=O)c2ccccc2)cc1C` (stereo not drawn): the activation was inactive: 19%.

Regarding `CC(C)Nc1nc2c(S(=O)(=O)c3cccc(Cl)c3)nnn2c2ccsc12`, the activation is inactive: -9.49%.

Turning to `O=C(CCCCCN1CCN(c2ccccc2-c2ccccc2)CC1)NC1CCCc2ccccc21` (stereo not drawn), the activation is inactive: -36.3%.

`COC(=O)c1sc(N2C(=O)c3oc4ccc(C)cc4c(=O)c3C2c2ccc(O)c(OC)c2)nc1C` (stereo not drawn): the activation was inactive: -2.72%.

Turning to `CCOC(=O)c1c(C)oc2nc(C)nc(NCCc3ccc(OC)c(OC)c3)c12`, the activation was inactive: -7.39%.

`COc1ccc(CCNc2nc(SCc3ccccc3F)nc3ccccc23)cc1OC`: the activation is inactive: -20.4%.

As to `COC(=O)c1ccc(C(=O)OC)c(NC(=O)c2c(-c3ccccc3)noc2C)c1`, the activation was inactive: -6.84%.

With `CCc1ccc(NC(=O)C2CCCN2S(=O)(=O)c2ccc3nc(-c4ccccc4)[nH]c3c2)cc1` (stereo not drawn), the activation is inactive: 14.2%.

With `CCOC(=O)Cc1c(C)nc2cc(-c3ccc(C(C)(C)C)cc3)nn2c1C`, the activation was inactive: -12%.

In the case of `Cc1csc2nc(COc3ccc(NC(=O)C(C)C)cc3)cc(=O)n12`, the activation is inactive: 0.526%.

For `Cn1c(=O)n(CC(=O)O)c(=O)c2c1nc1n2CCCN1c1ccc(Cl)cc1`, the activation was inactive: -5.04%.

With `CCOC(=O)c1c(NC(=O)CSc2nc(-c3ccc(OC)cc3)cc(C(F)(F)F)n2)sc(C)c1C`, the activation was inactive: 10.2%.

As to `Cc1ccccc1NC(=O)CC1NCCNC1=O` (stereo not drawn), the activation is inactive: -1.32%.

Turning to `COc1ccc(-n2ncc(C(=O)N3CCN(C4CCCCC4)CC3)c2C2CCN(C(=O)OC(C)(C)C)CC2)cc1`, the activation was inactive: -16.7%.

In the case of `Cc1ccc(NC(=O)c2c3c(nc4ccccc24)C(=O)N(C2CCCCC2)C3)cc1F`, the activation was inactive: -2.45%.

As for `COc1ccc(C2CC(=O)c3cnc4c(-c5ccc(F)cc5)c(C)nn4c3C2)cc1OC` (stereo not drawn), the activation was inactive: 26.8%.

As for `CCN(CC)S(=O)(=O)c1ccc2c(c1)c(=O)c(C(=O)NCCc1ccccc1)cn2C`, the activation was inactive: 1.5%.

Consider `CCN1CCN(c2nc3c(S(=O)(=O)c4ccc(C)cc4)nnn3c3ccsc23)CC1`, for which the activation is inactive: -5.57%.

As for `CCN(CC)S(=O)(=O)c1ccc2c(c1)N(CC(=O)NCCc1ccccc1)C(=O)CO2`, the activation is inactive: -32%.

With `CCC(Oc1ccccc1)C(=O)Nc1cc(-c2ccccc2F)nn1-c1ccccc1` (stereo not drawn), the activation is inactive: -7.82%.

For the compound `CCOc1ccc2nc(N3CCCC(C(=O)Nc4ccc(CC)cc4)C3)sc2c1` (stereo not drawn), the activation was inactive: -3.27%.

In the case of `CCc1ccc2oc(-c3cccc(NC(=O)COc4ccccc4Cl)c3)nc2c1`, the activation was inactive: 0.883%.

Consider `CCN(CC)C(=O)c1ccc2c(c1)N(Cc1ccccc1F)C(=O)c1ccccc1S2=O` (stereo not drawn), for which the activation is inactive: -25.8%.

Consider `CCOc1ccc(NC(=O)CSc2nc3ccsc3c(=O)n2CC)cc1`, for which the activation is inactive: -6.71%.

For `COc1cc(NC(=O)C(CC(C)C)N2Cc3ccccc3C2=O)cc(OC)c1` (stereo not drawn), the activation is inactive: -11.6%.

For the compound `Cc1cccc(C(=O)n2nc(-c3cccnc3)nc2NCc2ccc(F)cc2)c1`, the activation is inactive: -28.4%.

Take `Cc1c(C(=O)NCc2cccc(F)c2)oc2c1-c1[nH]ncc1CC2`: the activation is inactive: -11.4%.

For `CCCCOc1ccc(CNC(=O)c2cnc3sc(N4CCCCCC4)nn3c2=O)cc1`, the activation is inactive: 8.06%.

As to `CCCCNC(=O)CCn1nc(-c2ccc(Cl)cc2)c2ccccc2c1=O`, the activation was inactive: -3.91%.

For the origin of these results see PubChem BioAssay AID1346428 (National Center for Advancing Translational Sciences (NCATS), 2018).
